Assay results reported in paper PMC4336329 (PLoS ONE, 2015).
Hit rate of the full screen: of about 310,000 compounds, about 2,200 (0.71%) showed an effect of 50% or more. Effects have a minus sign here. The list shows a part of the results.

target: human ether-à-go-go-related gene (hERG) potassium channel (human, UniProt Q12809); assay: primary screen, population patch clamp on CHO cells stably expressing hERG
Sequence (Q12809 whole entry, looked up): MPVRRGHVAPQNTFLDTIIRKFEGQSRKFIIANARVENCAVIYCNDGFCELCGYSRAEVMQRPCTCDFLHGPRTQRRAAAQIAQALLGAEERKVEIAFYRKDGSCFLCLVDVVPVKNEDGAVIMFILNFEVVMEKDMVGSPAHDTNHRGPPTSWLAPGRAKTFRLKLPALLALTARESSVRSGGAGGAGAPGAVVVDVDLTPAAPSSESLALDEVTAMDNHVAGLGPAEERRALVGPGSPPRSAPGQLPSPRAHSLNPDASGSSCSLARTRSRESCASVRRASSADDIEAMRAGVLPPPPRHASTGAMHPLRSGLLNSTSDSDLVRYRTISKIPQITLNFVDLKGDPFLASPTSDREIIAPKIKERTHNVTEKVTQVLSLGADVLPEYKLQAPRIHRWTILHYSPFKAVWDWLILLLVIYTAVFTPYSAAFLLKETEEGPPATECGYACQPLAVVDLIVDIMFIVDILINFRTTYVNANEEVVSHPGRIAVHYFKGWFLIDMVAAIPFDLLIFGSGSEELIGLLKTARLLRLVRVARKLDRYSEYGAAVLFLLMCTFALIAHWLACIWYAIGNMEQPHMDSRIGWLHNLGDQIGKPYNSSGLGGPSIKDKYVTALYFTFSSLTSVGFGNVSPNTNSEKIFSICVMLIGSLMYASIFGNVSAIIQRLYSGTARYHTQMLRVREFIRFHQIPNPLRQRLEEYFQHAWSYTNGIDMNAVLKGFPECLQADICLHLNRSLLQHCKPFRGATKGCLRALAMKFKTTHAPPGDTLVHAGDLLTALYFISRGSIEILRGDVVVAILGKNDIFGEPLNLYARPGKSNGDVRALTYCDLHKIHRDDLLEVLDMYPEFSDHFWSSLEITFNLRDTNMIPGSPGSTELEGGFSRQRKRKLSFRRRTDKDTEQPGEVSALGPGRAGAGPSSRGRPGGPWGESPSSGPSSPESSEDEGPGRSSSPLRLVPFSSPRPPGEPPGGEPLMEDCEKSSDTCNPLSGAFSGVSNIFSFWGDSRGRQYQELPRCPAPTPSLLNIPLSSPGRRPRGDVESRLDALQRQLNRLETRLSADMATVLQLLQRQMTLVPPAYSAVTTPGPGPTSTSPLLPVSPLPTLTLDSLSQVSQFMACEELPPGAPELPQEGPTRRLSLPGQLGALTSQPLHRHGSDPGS

SMILES	hERG current change (%, negative = inhibition) at 1uM
Cc1ccc(C(=O)CNc2ccc(Br)cc2)cc1	11.3%
Cc1cc(C#N)c(C)n1-c1cc(S(=O)(=O)N2CCOCC2)ccc1N1CCCC1	5.78%
CCn1c(SCc2nc3ccccc3c(=O)[nH]2)nc2ccccc21	-3.29%
COc1ccc(C(=O)Nc2ccccc2Cc2ccccc2)c(OC)c1	11.3%
Cc1ccccc1OCCn1cc(C(=O)O)c2ccccc21	10.3%
COC(=O)Cn1ncn2c(cc3oc(C)cc32)c1=O	11.9%
CCOC(=O)CN(C(=O)CNC(=O)c1ccco1)C(C(=O)NC1CCCC1)c1ccccc1OCC (stereo not drawn)	16.9%
COc1ccc(CCNS(=O)(=O)CCNC(=O)c2ccc3c(c2)OCO3)cc1OC	10.4%
COc1ccc(NC(=O)NCCCN2CCc3ccccc3C2)cc1	-69.5%
COc1cc(NS(=O)(=O)c2ccc(NC(=O)/C=C/c3ccc([N+](=O)[O-])cc3)cc2)ncn1	14.4%
COc1ccc(C(=O)O)c(O)c1	-0.854%
CCOC(=O)c1c(NC(=S)N2CCN(C)CC2)sc2c1CCN(C(=O)OCC)C2	11.9%
COc1cccc(-c2nn(-c3ccccc3)cc2C(=O)Nc2nccs2)c1	10%
CCCC(=O)Nc1cccc(NC(=O)c2ccc3c(c2)OCO3)c1	-20.9%
Fc1ccccc1N1CCN(c2nnnn2-c2ccccc2)CC1	6.46%
CCOCC(=O)Nc1cc(C(=O)Nc2ccccc2)ccc1Cl	6.2%
Cc1ccccc1C(=O)NNC(=O)c1ccoc1C	-12.3%
CSCCC(NC(=O)/C(=C\c1ccco1)NC(=O)c1ccco1)C(=O)O (stereo not drawn)	-2.32%
CCc1cc(=O)oc2cc(C)cc(OCC(=O)NC(Cc3c[nH]c4ccc(O)cc34)C(=O)O)c12 (stereo not drawn)	12.8%

SMILES	hERG current change (%, negative = inhibition) at 1uM
O=c1nccc(Nc2ccccc2)[nH]1	13.4%
O=C(Nc1ccccc1Br)C1CC(=O)N(c2ccc3c4c(cccc24)CC3)C1 (stereo not drawn)	7.21%
C=CCn1c(=O)c(C(=O)NC2CC2)c(O)c2cc(OC)c(OC)cc21	10.3%
O=C(NNS(=O)(=O)c1ccc(F)cc1F)C1Cc2c(ccc3ccccc23)O1 (stereo not drawn)	17.1%
CC(C)c1nnc(NC(=O)C2CCCN(C(=O)Nc3ccc(F)cc3)C2)s1 (stereo not drawn)	10.6%
O=C(COc1ccc2c3c(c(=O)oc2c1)CCCC3)NC(Cc1ccc(Cl)cc1)C(=O)O (stereo not drawn)	15.3%
Cc1ccc(S(=O)(=O)NC(CC(C)C)C(=O)Oc2ccc3c4c(c(=O)oc3c2)CCC4)cc1 (stereo not drawn)	16.5%
C[C@H]1CN=C(Nc2ccccc2)N1CCc1ccccc1	10.9%
Cc1cc2c(NC(=O)Nc3ccc(C(F)(F)F)cc3)cccc2nn1	2%
COc1cccc(OCCNC(=O)c2cc(OC)c(OC)c(OC)c2)c1	13.6%
O=C(CSc1nnnn1C1CCCCC1)NNC(=O)c1ccco1	11.7%
CCOc1cc(CN2CCN(S(=O)(=O)Cc3ccccc3)CC2)ccc1OC.O=C(O)C(=O)O	0.965%
COc1cc(/C=C/C(=O)O)cc(S(=O)(=O)Nc2ccc3nc(SC)sc3c2)c1OC	12.1%
CC1=C(C(=O)OC(C)C)C(c2ccco2)NC(=O)N1 (stereo not drawn)	10.8%
Cc1ccc(S(=O)(=O)N2CCSC2)cc1C	9.84%
O=C(CCN1C(=O)C2CC=C(Cl)CC2C1=O)NC1CCCCC1 (stereo not drawn)	0.212%
COc1ccc(C(OC(=O)c2ccco2)C(=O)NC2CCCC2)cc1 (stereo not drawn)	18.3%
CSc1sc(C(=O)N2CCc3ccccc32)cc1S(=O)(=O)C(C)C	15%
Cc1ccc(-n2nc3c([n+]2[O-])CCc2c-3no[n+]2[O-])cc1	19.7%

SMILES	hERG current change (%, negative = inhibition) at 1uM
CS(=O)(=O)c1ccccc1C(=O)Nc1cc2c(cc1C(=O)O)OCCCO2	8.44%
O=C(NCc1ccc(N2CCCC2=O)cc1)c1cccc(Cl)c1	2.86%
CC(C)(C)S(=O)(=O)c1cnc(-c2cnccn2)nc1N	8.36%
Cc1ccc2cc(C#N)c(SCC(=O)NCC3CCCO3)nc2c1 (stereo not drawn)	10.4%
C=CCn1cc(C(=O)NCCCOCC)c(=O)c2cc(S(=O)(=O)N(CC)CC)ccc21	4.06%
O=C(CN1C(=O)COc2ccccc21)c1cccc(Cl)c1	14.3%
O=C(O)c1ccc(NCc2nc3ccccc3n2CCOc2ccccc2Cl)cc1	7.61%
CC1(C)CC(CC(=O)O)C(=O)O1 (stereo not drawn)	13.4%
Cc1ccc(/C=N/n2c(COc3ccccc3)n[nH]c2=S)cc1	14.9%
CCN(CC)S(=O)(=O)c1ccc(C)c(NC(=O)COC(=O)CCC(=O)c2cccs2)c1	13%
COc1ccccc1OC(C)C(=O)Nc1ccc2c(c1)n(C)c(=O)n2C (stereo not drawn)	13.8%
COCc1cc(C)nc(N2CCN(Cc3ccccc3)CC2)c1C#N	-3.29%
COc1cccc(/C=C2\SC(=S)N(CCCC(=O)N3CCCCC3)C2=O)c1	5.8%
Cc1ccccc1OCc1nc2ccccc2c(=O)n1/N=C/c1c[nH]c2ccccc12	7.56%
COc1ccccc1-c1nc(SCC(=O)Nc2ccccc2)n[nH]1	5.6%
CN(C)CCN(C(=O)c1ccc2c(c1)CCCC2)c1nc2c(F)cccc2s1.Cl	6.94%
Cc1ccc(/C=N/NC(=O)c2ccccn2)o1	-5.35%
Cc1nn(C)c(C)c1NS(=O)(=O)c1ccccc1Cl	2.49%
CCC(c1nnnn1Cc1ccco1)N1CCC(C(N)=O)CC1.Cl (stereo not drawn)	14.4%
